Source: PubChem BioAssay AID485294 (National Center for Advancing Translational Sciences (NCATS), 2010)
The whole screen tested about 370,000 compounds, of which about 150 (0.041%) were called active. Inconclusive means that the source gave no clear call. Such entries were picked first, then a sample of the others. Calls come from the whole dose curve; as a rule, active = well fitted inhibition curve with a large enough effect; inconclusive = small, poorly fitted or top-dose-only effect; inactive = flat fitted curve, though single readings scatter. No potency is given beside an inconclusive call; the fits are too rough.

These molecules were tested against Beta-lactamase (Escherichia coli (strain K12)) (UniProt P00811) (assay: qHTS Inhibitors of AmpC Beta-Lactamase (assay with detergent)). Conditions: AmpC hydrolysis of nitrocefin, absorbance 480 nm, 0.01% Triton; series mostly up to 114 µM.
Chain of UniProt P00811 (P00811 whole entry, looked up): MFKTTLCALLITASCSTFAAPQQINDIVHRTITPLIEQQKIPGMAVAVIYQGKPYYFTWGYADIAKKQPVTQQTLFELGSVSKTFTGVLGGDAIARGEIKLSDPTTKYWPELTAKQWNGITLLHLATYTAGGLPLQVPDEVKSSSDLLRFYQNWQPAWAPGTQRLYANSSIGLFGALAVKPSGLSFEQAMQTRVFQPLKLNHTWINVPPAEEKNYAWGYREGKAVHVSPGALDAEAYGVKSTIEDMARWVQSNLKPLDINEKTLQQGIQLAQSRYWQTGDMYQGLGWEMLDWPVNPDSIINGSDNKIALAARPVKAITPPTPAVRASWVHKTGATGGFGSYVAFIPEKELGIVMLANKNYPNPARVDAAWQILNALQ
In short: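 AmpC (5.3 nM in the dispensed reagent) in 20 mM phosphate pH 7.0 with 0.01% (detergent screen) or 0.0001% Triton X-100 was preincubated with compounds for 15 min at room temperature. Nitrocefin was then added from an 800 uM solution, and hydrolysis was followed at 480 nm.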
Note: nearly all actives have a fitted effect of over 25% in size.
Potency is the fitted concentration of half-maximal effect; tags give direction and shape of the fitted curve.

| SMILES | Potency |
| --- | --- |
| NC(=O)C1=NOC(CNc2ncc(C(F)(F)F)cc2Cl)C1 (stereo unspecified) | inactive |
| Cn1c(SCC(=O)N2c3ccccc3CCc3ccccc32)nnc1-c1ccc(O)cc1 | inactive |
| c1cncc(-c2noc(CC3CCCCC3)n2)c1 | inconclusive [inhibitor, single point] |
| CCOc1ccc(S(=O)(=O)N2CCN(C(=O)c3cc(S(=O)(=O)N4CCOCC4)ccc3C)CC2)cc1 | inconclusive [inhibitor, full curve] |
| CC(=O)Nc1ccc(NC(=O)COC(=O)CCCc2c[nH]c3ccccc23)cc1 | inconclusive [inhibitor, full curve, poor fit] |
| COc1ccc2cc(C(=O)NCc3ccco3)c(=Nc3ccc(C(=O)O)cc3)oc2c1 | inactive |
| Cc1ccc(OCc2nnc(SCC(=O)N3c4ccccc4Sc4ccc(Cl)cc43)o2)cc1 | inconclusive [inhibitor, full curve, poor fit] |
| Cc1ccc(C2Nc3ccccc3-n3c(-c4ccccc4)c4c(=O)n(C)c(=O)n(C)c4c32)o1 (stereo unspecified) | inactive |
| Cc1ccc(CN(C)C(=O)c2cc(Br)c(Br)s2)o1 | inactive |
| CCOC(=O)c1c(Nc2ccccc2)sc(/C=C2\C=Nc3ccccc32)c1O | inconclusive [inhibitor, full curve] |
| CCCN(C(=O)Cn1c(C(F)(F)F)nc2ccccc21)C1CCS(=O)(=O)C1 (stereo unspecified) | inconclusive [inhibitor, full curve, poor fit] |
| Cc1cccc(NC(=S)NC(NC(=O)OCc2ccccc2)C(Cl)(Cl)Cl)c1 (stereo unspecified) | inconclusive [inhibitor, single point] |
| COc1ccc(CNc2ncc(-c3ccc(Cl)cc3)n2C)c(OC)c1OC | inconclusive [inhibitor, full curve, poor fit] |
| C=CCn1cnc2c(c1=O)c1nc3ccccc3nc1n2/N=C/c1ccccn1 | inactive |
| Cc1ccc(NC(=O)CN2C(=O)NC3(CCCC3)C2=O)nc1 | inconclusive [inhibitor, full curve, poor fit] |
| C#CCOCCOCCOCCNc1nc(N2CCOCC2)nc(N2CCN(C(=O)[C@H](C)n3cc(CCCN=C(N)N)nn3)CC2)n1 | inactive |
| Cc1nn(CC(=O)NC2CC2)c(=O)c2cc3ccccc3n12 | inactive |
| CC(C)(C)c1ccc(-n2ncc3c2CCCC3NC(=O)CCN2CCCC2=O)cc1 (stereo unspecified) | inactive |
| CC(=O)NS(=O)(=O)c1ccc(NC(=O)COc2ccc(C(=O)c3ccccc3)cc2)cc1 | inconclusive [inhibitor, single point] |
| NC(=O)C1CCN(C(=O)CCn2c(=O)oc3ccccc32)CC1 | inconclusive [inhibitor, full curve, poor fit] |
| CCOC(=O)N1CCN(C(=O)CN(c2cccc(Cl)c2C)S(=O)(=O)c2ccc(C)cc2)CC1 | inconclusive [inhibitor, partial curve, poor fit] |
| O=C(Nc1ccccc1)c1cccc2c(=O)c3c([nH]c12)CCCC3 | inactive |
| Cc1nn(C)cc1/C=N/NC(=O)c1sc2ccccc2c1Cl | inconclusive [inhibitor, full curve, poor fit] |
| Cc1cc(Nc2cccc(Cl)c2)n2ncnc2n1 | inconclusive [inhibitor, full curve] |

| SMILES | Potency |
| --- | --- |
| COC(=O)c1ccc(OC(=O)C2CSC3(C)CCC(=O)N23)cc1 (stereo unspecified) | inconclusive [inhibitor, full curve, poor fit] |
| COC(=O)/C(=C/c1ccc2c(c1)c1ccccc1n2C)NC(=O)c1ccccc1 | inconclusive [inhibitor, full curve, poor fit] |
| Cc1nc(-c2ccc(F)cc2)c(CC(=O)N(C)CC(=O)Nc2c(C)cccc2C)s1 | inconclusive [inhibitor, partial curve, poor fit] |
| NC1=NC[C@H](Cc2ccc(O)cc2)N1CCCCC1CCCCC1 | inactive |
| O=C(c1cc2c(=O)oc3ccccc3c2s1)N1CCN(c2cccc(Cl)c2)CC1 | inconclusive [inhibitor, single point] |
| Cc1cccc(C(=O)NNC2=C(C(=O)C(F)(F)F)CCC2)c1O | inactive |
| N#CCSc1nnc(CNc2ccc(F)cc2)o1 | inconclusive [inhibitor, partial curve, poor fit] |
| Clc1ccc2c(N3CCNCC3)ccnc2c1 | inactive |
| CCCCC(CC)C(=O)Nc1ccc(S(=O)(=O)N2CCCC2)cc1 (stereo unspecified) | inconclusive [inhibitor, full curve, poor fit] |
| CCOc1c2ccc(C(=O)NCc3ccc(C(F)(F)F)cc3C(F)(F)F)cc2nn1C | inconclusive [inhibitor, full curve, poor fit] |
| CCOc1ccc(C(=O)N/N=C(\c2ccccc2)c2ccccn2)cc1 | inactive |
| O=S(=O)(Cc1ccc(Cl)cc1)N1CCCC1 | inconclusive [inhibitor, full curve, poor fit] |
| CCCCC(=O)Nc1nnn(CCC)n1 | inconclusive [inhibitor, single point] |
| O=C(O)COc1cccc(NC(=O)C2CCCO2)c1 (stereo unspecified) | inconclusive [inhibitor, single point] |
| CC(C)(CO)NC(=O)CCCOc1ccc(Cl)cc1Cl | inactive |
| CCOc1ccccc1NC(=O)C1CCN(S(=O)(=O)c2c(C)noc2/C=C/c2ccc(C)cc2)CC1 | inactive |
| CCN(CC(=O)Nc1ccc(NC(C)=O)cc1)CC(=O)Nc1ccc(Cl)c(Cl)c1 | inconclusive [inhibitor, partial curve] |
| CC(C)CCOc1ccc(C(=O)Nc2sc3c(c2C#N)CCCCC3)cc1 | inactive |
| Cc1nc2ccccc2c(=O)n1-c1ccccc1C(F)(F)F | inactive |
| CCOc1ccc(NC(=O)Nc2nnc(CC(=O)NCc3ccccc3)s2)cc1 | inconclusive [inhibitor, single point] |
| O=C(Cc1cccs1)Nc1nnc(-c2ccncc2)s1 | inconclusive [inhibitor, full curve] |
| Cc1ccc(C(=O)Nc2ccc(Cl)c(-c3nc4ncccc4o3)c2)c(C)c1 | inactive |
| Cc1ccccc1OCc1ccc(-c2nc(C#N)c(NCCCN(C)C)o2)o1 | inactive |
| O=C(O)C1CSC(CCc2ccccc2)N1 (stereo unspecified) | inconclusive [inhibitor, full curve, poor fit] |

| SMILES | Potency |
| --- | --- |
| O=C(/C=C/c1ccc(OCCCF)cc1)Nc1ccnc(-c2cccnc2)n1 | inconclusive [inhibitor, full curve, poor fit] |
| COc1cccc(CNC(=O)C2CCN(S(=O)(=O)c3ccc4c(c3)OCCO4)CC2)c1 | inactive |
| CN(Cc1nc(-c2cccc(Cl)c2)no1)C1CCOCC1 | inactive |
| O=C(O)c1ccc(CSc2nc3ccccc3o2)cc1 | inactive |
| Cc1ccc(N2CC(C(=O)Nc3ccc(S(=O)(=O)NCC4CCCO4)cc3)CC2=O)cc1C (stereo unspecified) | inconclusive [inhibitor, single point] |
| Cc1ccc(OCc2ccc(C(=O)NCc3cccnc3)cc2)cc1C | inactive |
| O=C(N/N=C/c1ccccn1)c1ccc(Cl)cc1 | inconclusive [inhibitor, full curve, poor fit] |
| COc1ccc(C(=O)n2cc(C(=O)c3cc(C)ccc3O)cn2)cc1 | inactive |
| Cc1ccccc1-n1c(Cn2c(=O)sc3ccccc32)nnc1SCC(N)=O | inconclusive [inhibitor, full curve] |
| COc1cc(-c2noc(C)c2C#Cc2ccccn2)cc(OC)c1OC | inconclusive [inhibitor, full curve] |
| Nc1c(-c2ccccc2)cnn1-c1ccccc1 | inactive |
| CCOc1ccc(NC(=O)CN(C)C(=O)c2ccccc2Cc2ccccc2)cc1OCC | inconclusive [inhibitor, full curve, poor fit] |
| CN(CC(=O)Nc1ccc2c(c1)OCCO2)S(=O)(=O)c1ccc(F)cc1 | inconclusive [inhibitor, full curve, poor fit] |
| CC(C)(C)CC(=O)Nc1cccc2c1CCCC2 | inconclusive [inhibitor, full curve, poor fit] |
| CC(C)CCNC(=O)c1c(N)n(CC2CCCO2)c2nc3ccccc3nc12 (stereo unspecified) | inactive |
| CCOc1ccc(CNS(=O)(=O)c2c(C)nc3sccn3c2=O)cc1OC | inconclusive [inhibitor, partial curve, poor fit] |
| O=C(COC(=O)CNS(=O)(=O)c1ccc(Br)cc1Cl)NC1CC1 | inconclusive [inhibitor, partial curve] |
| CCCc1ccc2oc(C(=O)N(Cc3nccn3C)C(C)C)c(C)c2c1 | inactive |
| Cc1cccn2c(=O)c3cc(C(=O)NC(C)c4ccccc4)c(=N)n(CCCn4ccnc4)c3nc12 (stereo unspecified) | inactive |
| CCC(=O)c1ccc(OCC(=O)OC(C)C(=O)NCc2ccc3c(c2)OCO3)cc1 (stereo unspecified) | inconclusive [inhibitor, partial curve, poor fit] |
| O=C(COC(=O)c1cc(S(=O)(=O)N2CCCC2)ccc1O)NCc1ccccc1 | inconclusive [inhibitor, full curve, poor fit] |
| Cc1ccc(NC(=O)O/N=C/c2ccc(F)cc2)cc1 | inconclusive [inhibitor, full curve, poor fit] |
| COc1ccc(NC(=O)CCNS(=O)(=O)c2cccc3nonc23)cc1 | inconclusive [inhibitor, partial curve] |
